Experimental data as given in PubChem BioAssay AID1347055 (National Center for Advancing Translational Sciences (NCATS), 2019).
The whole screen tested about 54,000 compounds, of which about 120 (0.22%) were called active. This list was built around the results that the source calls inconclusive (neither active nor inactive); the mix of calls is not that of the screen. Calls follow the shape of the dose curve; as a rule, active = well fitted inhibition curve with a large enough effect; inconclusive = small, poorly fitted or top-dose-only effect, or effect the other way; inactive = flat fitted curve, though single readings scatter. No potency is given beside an inconclusive call; the fits are too rough.

Each compound was assayed against Fumarate hydratase, mitochondrial (Homo sapiens) (UniProt P07954) (assay: Identification of activators of human fumarate hydratase by quantitative high-throughput screening). Settings: FH coupled MDH/diaphorase resazurin fluorescence, 15 min; activity change, negative = inhibition: at 79.9 µM (top of the series).
Chain of UniProt P07954 (P07954 whole entry, looked up): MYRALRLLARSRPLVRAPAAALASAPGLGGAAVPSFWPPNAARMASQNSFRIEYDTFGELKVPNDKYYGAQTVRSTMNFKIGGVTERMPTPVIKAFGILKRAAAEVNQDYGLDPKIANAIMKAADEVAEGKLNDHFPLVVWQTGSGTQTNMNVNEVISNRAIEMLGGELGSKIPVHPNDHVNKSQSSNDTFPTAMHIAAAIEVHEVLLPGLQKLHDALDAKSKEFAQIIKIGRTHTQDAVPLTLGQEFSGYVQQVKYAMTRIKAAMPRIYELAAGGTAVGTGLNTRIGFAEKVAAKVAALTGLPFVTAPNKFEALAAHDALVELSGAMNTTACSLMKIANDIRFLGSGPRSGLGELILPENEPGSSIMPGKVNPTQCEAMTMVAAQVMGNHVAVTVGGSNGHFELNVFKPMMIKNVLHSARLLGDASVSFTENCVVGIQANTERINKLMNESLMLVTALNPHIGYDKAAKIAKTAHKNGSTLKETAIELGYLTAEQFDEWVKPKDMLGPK
% is scaled to controls: 0 for no effect and ±100 for the full control effect; potency is read from the fitted curve at half-maximal effect; tags tell the direction and shape of the fitted curve.
Also: the screen sought activators but most active calls are inhibition curves; nearly all actives have a fitted effect of over 45% in size.

Q: How did the “activity change, negative = inhibition” value turn out when `CC[C@H]1OC(=O)[C@H](C)[C@@H](O[C@H]2C[C@@](C)(OC)[C@@H](O)[C@H](C)O2)[C@H](C)[C@@H](O[C@@H]2O[C@H](C)C[C@H](N(C)C)[C@H]2O)[C@@](C)(O)C[C@@H](C)[C@@H]2N[C@@H](COCCOC)OC([C@H]2C)[C@]1(C)O` was run?
A: The value was inactive: -0.606%.

Q: For `Cc1oc(-c2cccc(Cl)c2)nc1CSCC(=O)NCc1ccccc1Cl`, which Potency is on record?
A: The Potency was inconclusive [inhibitor, partial curve, poor fit].

Q: With `COc1ccccc1Cn1c(SCC(=O)C(C)(C)C)nc2ccccc2c1=O` as the compound, how does the Potency read?
A: Its Potency is inconclusive [inhibitor, partial curve, poor fit].

Q: `COc1ccc(N2CCN(C(=O)c3sc4nc5n(c(=O)c4c3C)CCC5)CC2)cc1` was tested. Which Potency did it give?
A: Its Potency is inconclusive [inhibitor, partial curve, poor fit].

Q: With `CCc1cccc(NC(=O)c2oc3ccc4c(c3c2C)C(=O)CC(C)(C)O4)c1` as the compound, how does the Potency read?
A: The Potency was inconclusive [inhibitor, single point].

Q: For `CCOC(=O)c1ccc(N2C(=O)Cc3cc(OCC)c(OCC)cc3C2c2ccccc2)cc1` (stereo not drawn), which Potency is on record?
A: Its Potency is inconclusive [inhibitor, partial curve, poor fit].

Q: Which Potency does the source give for `COc1ccc(NC(=O)C(C)Sc2cc(-c3ccccc3)nc(C)n2)cc1Cl` (stereo not drawn) here?
A: The Potency was inconclusive [inhibitor, partial curve, poor fit].

Q: Which Potency does the source give for `Cc1cc(C)cc(NC(=O)C(=O)NCC(c2cccnc2)N2CCN(c3ccccc3)CC2)c1` (stereo not drawn) here?
A: Its Potency is inconclusive [inhibitor, partial curve, poor fit].

Q: `CCCCn1cc(S(=O)(=O)c2ccc(CC)cc2)c(=O)c2cc(F)c(N3CCOCC3)cc21` was tested. Which “activity change, negative = inhibition” value did it give?
A: The value was inactive: -13.8%.

Q: Which Potency does the source give for `CCOc1ccccc1NC(=O)c1c(NCc2cccs2)sc2c1CCCCC2` here?
A: Its Potency is inconclusive [inhibitor, partial curve, poor fit].

Q: Which Potency does the source give for `CCc1ccc(-n2c(SCc3ccccc3C)nc3[nH]ncc3c2=O)cc1` here?
A: Its Potency is inconclusive [inhibitor, single point].

Q: How did the “activity change, negative = inhibition” value turn out when `Cc1ccc(-c2nc(CS(=O)(=O)CC(=O)NCc3ccc(Cl)cc3)c(C)o2)cc1` was run?
A: The value was inactive: -0.297%.

Q: How did the Potency turn out when `CCCN(C(=O)COc1cc(=O)n(CC)c2ccccc12)c1ccc(C(C)C)cc1` was run?
A: Its Potency is inconclusive [inhibitor, partial curve, poor fit].

Q: Which Potency does the source give for `COc1cccc(Cn2c(SCC(=O)N(C)c3ccccc3)nc3ccccc32)c1` here?
A: Its Potency is inconclusive [inhibitor, single point].

Q: `CCOC(=O)N1CCC(=C2c3ccc(Cl)cc3CCc3cccnc32)CC1` was tested. Which Potency did it give?
A: The Potency was inconclusive [inhibitor, single point].

Q: How did the “activity change, negative = inhibition” value turn out when `C/C=C(/C)C(=O)O[C@H]1C[C@]2(C)O[C@@H]2[C@@H](OC(C)=O)[C@@]2(C)CC[C@@](O)(C(C)C)[C@H]12` was run?
A: The value was inactive: 4.65% [at 53.3 µM].

Q: With `Cc1ccc(Cl)cc1N1CCN(C(=O)c2cnn(-c3ccc(Cl)cc3)c2C2CCNCC2)CC1` as the compound, how does the Potency read?
A: The Potency was inconclusive [inhibitor, partial curve, poor fit].

Q: With `CCCCC1CCC(c2nc(-c3ccncc3)no2)CC1` (stereo not drawn) as the compound, how does the “activity change, negative = inhibition” value read?
A: Its value is inactive: 0.348%.

Q: Which “activity change, negative = inhibition” value does the source give for `CC1(C=O)CCCC2(C)C1CCC13CC(CO)C(CCC12)C3` (stereo not drawn) here?
A: Its value is inactive: 0.208%.

Q: Which Potency does the source give for `CCOc1ccccc1NC(=O)C(C)n1nnc2sc3c(c2c1=O)CCCC3` (stereo not drawn) here?
A: The Potency was inconclusive [inhibitor, partial curve, poor fit].

Q: Which Potency does the source give for `O=C(COc1cccc(Cl)c1)N1CCC(c2nc3ccccc3s2)CC1` here?
A: The Potency was inconclusive [inhibitor, single point].

Q: Which “activity change, negative = inhibition” value does the source give for `CC(C)C(=O)OC[C@@]1(N=[N+]=[N-])O[C@@H](n2ccc(N)nc2=O)[C@H](OC(=O)C(C)C)[C@@H]1OC(=O)C(C)C` here?
A: The value was inactive: 0.0713%.

Q: `Cc1cccc(Nc2cc(C)nc3nc(Cc4ccc(Cl)cc4)nn23)c1` was tested. Which Potency did it give?
A: The Potency was inconclusive [inhibitor, partial curve, poor fit].

Q: `CCCN(CCc1ccsc1)C1CCc2c(O)cccc2C1` (stereo not drawn) was tested. Which “activity change, negative = inhibition” value did it give?
A: The value was inactive: 0.839%.

Q: `Cc1ccc(NC(=O)C2CCC(CNS(=O)(=O)c3cccc4nsnc34)CC2)c(C)c1` (stereo not drawn) was tested. Which “activity change, negative = inhibition” value did it give?
A: The value was inactive: -3.61%.

Q: With `Cc1ccc(C)c(S(=O)(=O)NCCc2csc(-c3ccc(Cl)cc3)n2)c1` as the compound, how does the Potency read?
A: The Potency was inconclusive [inhibitor, single point].

Q: How did the “activity change, negative = inhibition” value turn out when `COc1ccc(CCN2CC(C(=O)NCCc3ccccc3)CC2=O)cc1OC` (stereo not drawn) was run?
A: Its value is inactive: -16.2%.

Q: For `COC(=O)c1sc2cccc(F)c2c1S(=O)(=O)NCc1ccc(Cl)cc1`, which Potency is on record?
A: Its Potency is inconclusive [inhibitor, partial curve, poor fit].

Q: How did the “activity change, negative = inhibition” value turn out when `COC(=O)c1c(C)oc2ccc(N(C(=O)Oc3ccccc3)S(=O)(=O)c3ccc(C(C)(C)C)cc3)cc12` was run?
A: The value was inactive: -18.3%.

Q: With `Cc1c(C)n(C)c2ccc(C(=O)NCCc3ccc(Cl)cc3)cc12` as the compound, how does the Potency read?
A: The Potency was inconclusive [inhibitor, partial curve].

Q: Which “activity change, negative = inhibition” value does the source give for `COC(=O)C(CC1CCCC1)c1ccc(S(C)(=O)=O)cc1` (stereo not drawn) here?
A: The value was inactive: 1.17%.

Q: `CCCCc1ccc(NS(=O)(=O)c2ccc(N3CCCCS3(=O)=O)cc2)cc1` was tested. Which Potency did it give?
A: Its Potency is inconclusive [inhibitor, single point].

Q: With `COc1cc(/C=C/C(=O)OC[C@H]2O[C@@](CO)(O[C@H]3O[C@H](CO)[C@@H](O)[C@H](O)[C@H]3O)[C@@H](OC(=O)/C=C/c3ccc(O)c(OC)c3)[C@@H]2O)ccc1O` as the compound, how does the “activity change, negative = inhibition” value read?
A: Its value is inactive: -4.13% [at 20.6 µM].

Q: With `CCCCCC(=O)N(c1ccc(OCC)cc1)S(=O)(=O)c1ccc2c(c1)n(C)c(=O)n2C` as the compound, how does the Potency read?
A: Its Potency is inconclusive [inhibitor, partial curve].

Q: For `CCOC(=O)C1CCN(C(=O)c2ccc3c(c2)sc2nc(-c4ccc(C)cc4)cn23)CC1`, which Potency is on record?
A: Its Potency is inconclusive [inhibitor, partial curve, poor fit].

Q: `COc1ccc(NC(=O)c2cc(S(=O)(=O)NCCC3=CCCCC3)ccc2F)cc1` was tested. Which Potency did it give?
A: The Potency was inconclusive [inhibitor, partial curve].

Q: How did the Potency turn out when `Cc1ccc(N(CC2=NCCN2)c2cccc(O)c2)cc1` was run?
A: The Potency was “inactive”.

Q: `COc1ccccc1Nc1c2c(nc3ccc(NC(=O)c4ccc(N(C)C)cc4)cc13)CCCC2` was tested. Which Potency did it give?
A: The Potency was inconclusive [inhibitor, partial curve, poor fit].
